Data on 51 compounds can be found in paper PMC12040169 (PLOS Biology, 2025).

SMILES strings stand for the structures. The list shows a part of the results.

In this experiment the test system is T1, C. trachomatis L2/434/Bu expressing GFP (CTL2-GFP).
T1 construct: L2/434/Bu GFP intracellular growth in HeLa cells
The arrangement: species or system HeLa; C. trachomatis total inclusion area by high-content imaging, normalised to DMSO. As to conditions: total inclusion area; 28.5 h, 10 µM; inhibitor. A digest of the protocol:
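Host cell viability was gauged from Hoechst-stained nuclei counts, while chlamydial growth was taken from total inclusion area and inclusion number per well. Cells were fixed and imaged by high-content microscopy once bulk GFP and resorufin fluorescence had been measured.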
Regarding `COc1ccccc1-c1cc2nc(C)cc(NCC3CCCO3)n2n1` (stereo not drawn) [CBK304277], the “% of control remaining” value was determined as 78.9637.

In the case of `OCCN1CC2(CCN(CC3CCCO3)CC2)c2ccccc21` (stereo not drawn) [CBK143959], the “% of control remaining” value is on record as 111.112.

For `O=C(NCCCN1CCOCC1)NC(=O)c1ccc(Cl)cc1` [CBK269531], the “% of control remaining” value was determined as 81.2787.

Regarding `O=C(CSc1nnc(-c2ccccc2)c(-c2ccccc2)n1)Nc1ccc(N2CCOCC2)cc1` [CBK269684], the “% of control remaining” value amounted to 98.206.

As to `O=C(Cn1c(NCCO)nc2ccccc21)c1ccc([N+](=O)[O-])cc1` [CBK262139B], the “% of control remaining” value is 84.5474.

On to `Cc1ccc(C(=O)NNC(=O)c2cccnc2)cc1` [CBK261045], for which the “% of control remaining” value turned out to be 97.8592.

Take `COc1ccc(-n2nnc(C(=O)N3CCCCC3C(N)=O)c2C)cc1` (stereo not drawn) [CBK305551]: the “% of control remaining” value is reported as 65.8651.

For `O=C(Cc1ccccc1)N1CCc2c([nH]c3ccccc23)C12CCNC2` (stereo not drawn) [CBK059461], the “% of control remaining” value is 89.025.

As for `CC[C@@H](Cn1nc2c(cc1=O)CCCCC2)NC(=O)c1ccco1` [CBK284553], the “% of control remaining” value was found to be 112.597.

Take `COc1ccc(C)cc1S(=O)(=O)Nc1cc(N2CCN(CC3CC3)CC2)c2occc2c1` [CBK073624C]: the “% of control remaining” value is given as 78.1743.

With `COc1cccc(CN2CCC(Cc3ccccc3)CC2)c1` [CBK126436], the “% of control remaining” value is 102.517.

As to `CC(C)OC(=O)c1cc2n(n1)C(C(F)(F)F)CC(c1cccs1)N2` (stereo not drawn) [CBK307176], the “% of control remaining” value is 66.0872.

Take `CCOC(=O)c1sc2nc(C(C)N(C)Cc3ccco3)[nH]c(=O)c2c1C` (stereo not drawn) [CBK306148]: the “% of control remaining” value worked out at 75.7385.

Consider `Cn1c(=O)[nH]c(=O)c2c1nc(CN1CCOCC1)n2CCc1ccccc1` [CBK269910], for which the “% of control remaining” value came to 88.0822.

For the compound `Nc1ccc(C(=O)Nc2ccc(Nc3cc(-c4ccccc4OCc4ccccc4)ncn3)cc2)cc1` [CBK091092], the “% of control remaining” value stood at 111.729.

With `O=C(CSc1nnc(-c2cccnc2)n1-c1ccc(Br)cc1)Nc1cc(C(F)(F)F)ccc1Cl` [CBK266099], the “% of control remaining” value was determined as 50.7693.

In the case of `O=C(NC1CCN(C(=O)CCn2ccc3ccncc32)CC1)C1CC1` [CBK284718], the “% of control remaining” value came out at 102.651.

Take `O=C(CO)N1CC2(CCN(CCC(c3ccccc3)c3ccccc3)CC2)c2ccccc21` [CBK131513]: the “% of control remaining” value is 72.5988.

Consider `Cc1ccc(C(=O)NCCCN2CCC3(CC2)OCCc2c3[nH]c3ccccc23)cc1` [CBK113485], for which the “% of control remaining” value is 6.936.

Consider `Cn1ccnc1C1(O)CCN(C(=O)Cc2ccccc2F)CC1` [CBK283585], for which the “% of control remaining” value amounted to 79.0397.

On to `CCOC(=O)C1(Cc2cc(-c3ccccc3F)no2)CCCNC1` (stereo not drawn) [CBK284577], for which the “% of control remaining” value is 79.8708.

In the case of `Cc1oc(C2CC2)cc1C(=O)N1CCCC1c1nc2ccccc2[nH]1` (stereo not drawn) [CBK283741], the “% of control remaining” value stood at 66.1785.

Regarding `CC(C)(C)c1ccc(-c2ccc3ccc(=O)[nH]c3n2)cc1` [CBK073716], the “% of control remaining” value worked out at 97.958.

On to `Cc1cnc(CNS(=O)(=O)c2c(C)noc2C)cn1` [CBK062328], for which the “% of control remaining” value stood at 102.122.

As to `CCn1c(CN2CC(C)CC(C)C2)nc2c1c(=O)n(C)c(=O)n2C` (stereo not drawn) [CBK306030], the “% of control remaining” value is on record as 75.3999.

`O=C(O)c1ccc(/C=N\NC(=O)C2COc3cc4ccccc4cc3O2)cc1` (stereo not drawn) [CBK262792]: the “% of control remaining” value turned out to be 81.5474.

As for `O=c1nc(-c2cc(Br)cs2)[nH]c2ccc(Cl)cc12` [CBK018959], the “% of control remaining” value worked out at 105.713.

Take `NC(CC(=O)O)c1ccc(OCCc2ccccc2)cc1` (stereo not drawn) [CBK287053]: the “% of control remaining” value stood at 94.6185.

Consider `Cc1ccc(S(=O)(=O)Nc2ccccc2C(N)=O)cc1` [CBK056893], for which the “% of control remaining” value is recorded as 91.9428.

Regarding `CCOc1cc(/C=C2\SC(=S)N(NC(=O)c3cccnc3)C2=O)ccc1O` [CBK262759], the “% of control remaining” value is recorded as 82.4163.

As to `COC(=O)C1C(=O)NC(SCC(=O)Nc2cccc(Cl)c2C)=C(C#N)C1c1ccccc1F` (stereo not drawn) [CBK265830], the “% of control remaining” value came out at 134.508.

Consider `C[C@@H]1CN(C(=O)c2cscn2)C[C@H](C)O1` [CBK200371], for which the “% of control remaining” value stood at 94.4929.

Take `CN(C/C=C/c1ccccc1[N+](=O)[O-])CCc1ccccn1` [CBK261890]: the “% of control remaining” value is on record as 91.5623.

In the case of `O=C(CSc1ccc(-c2ccc(-n3ccnc3)cc2)nn1)NCc1ccco1` [CBK287717], the “% of control remaining” value was 65.9388.

As to `COc1ccc2sc(C)nc2c1` [CBK028488], the “% of control remaining” value is reported as 124.548.

On to `CCCCSc1nnc(-c2ccc(Br)cc2)o1` [CBK027012], for which the “% of control remaining” value is 67.6642.

On to `O=C(N/N=C/c1c(O)ccc2ccccc12)c1cnccn1` [CBK262400], for which the “% of control remaining” value is reported as 67.2556.

With `Cc1ncc(CN(C)C(=O)c2cccc(NC(=O)C3CCCCC3)c2)s1` [CBK306295], the “% of control remaining” value is reported as 85.4244.

Regarding `NS(=O)(=O)c1ccc(CCNC2CC(=O)N(CCc3ccccc3)C2=O)cc1` (stereo not drawn) [CBK263502], the “% of control remaining” value was determined as 120.702.

For the compound `CCN1CCC(Oc2nccnc2OCCN2CCOCC2)CC1` [CBK082931], the “% of control remaining” value worked out at 122.871.

With `O=C(Nc1cccc(S(=O)(=O)N2CCCC2)c1)c1nc[nH]n1` [CBK268353], the “% of control remaining” value was found to be 79.5014.

Turning to `O=C(Cc1ccccn1)NC(Cc1cccs1)c1ccccn1` (stereo not drawn) [CBK282243], the “% of control remaining” value is listed as 101.866.

Turning to `O=C(CSc1nnc2c(n1)[nH]c1ccccc12)NCCOc1ccccc1` [CBK268358], the “% of control remaining” value turned out to be 73.7147.

On to `O=S(=O)(Nc1cccc(C(F)(F)F)c1)c1ccc(N2CCCNCC2)c2ccccc12` [CBK003929C], for which the “% of control remaining” value is on record as 78.0576.

As to `Cc1nc(C(Cc2ccsc2)NC(=O)C2CCC(=O)N2)sc1C` (stereo not drawn) [CBK284780], the “% of control remaining” value came to 90.5243.

Take `O=C(CN(c1cc(C(F)(F)F)ccc1Cl)S(=O)(=O)c1ccccc1)NCc1cccnc1` [CBK264607]: the “% of control remaining” value is listed as 98.8877.

As to `O=C(O)Cn1cnc(-c2ccc(Br)cc2)c1` [CBK262441], the “% of control remaining” value is recorded as 104.155.

For the compound `Cc1ccc2[nH]c(-c3cncn3C(C)CN3CCOCC3)c(C)c2c1` (stereo not drawn) [CBK281794], the “% of control remaining” value was determined as 74.1415.

As for `CCOC(=O)c1ccc(N2CC(C(=O)O)CC2=O)cc1` (stereo not drawn) [CBK268106], the “% of control remaining” value is recorded as 95.8607.

Regarding `COC(=O)c1sccc1NS(=O)(=O)c1ccccc1C(F)(F)F` [CBK034717], the “% of control remaining” value is reported as 96.4313.

Turning to `COC(=O)c1c(NC(=S)NCc2cccs2)sc(C)c1-c1ccccc1` [CBK266943], the “% of control remaining” value came to 137.951.
